Assay results taken from article PMC6212790.
Some of the results follow. At the low end of the ranking the order means little.
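Also: rank score from −0.5 (least bound) to 0.5 (best bound).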

Each sequence was assayed against T1, GST-Rok (full length) (UniProt O34857) (assay: protein binding microarray). Settings: Rok is a gene silencer of Bacillus subtilis; high values mean tight binding; most listed sequences are background and not binding sites; double strand, one strand shown.
T1 sequence: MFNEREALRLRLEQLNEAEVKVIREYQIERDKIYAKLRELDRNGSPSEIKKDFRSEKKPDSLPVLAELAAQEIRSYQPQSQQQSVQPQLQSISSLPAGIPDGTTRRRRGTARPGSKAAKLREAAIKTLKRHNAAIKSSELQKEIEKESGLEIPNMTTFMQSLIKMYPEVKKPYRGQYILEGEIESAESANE
GTACGAAA gave a binding signal of 0.244 E-score.
In the case of CAACGCTA, the binding signal was -0.0304 E-score.
Work on AGCAGACT yielded a binding signal of -0.102 E-score.
Work on GCGCCCTA yielded a binding signal of -0.171 E-score.
For CGTAGAGA, the binding signal was 0.0535 E-score.
AGGGGACC showed a binding signal of -0.362 E-score.
GGAACGTA gave a binding signal of 0.00178 E-score.
GCGGCAGC showed a binding signal of -0.362 E-score.
Sequence GCTTGCGA has a binding signal of -0.0725 E-score.
Work on GAGCCCAA yielded a binding signal of -0.192 E-score.
Sequence ACAGATAA has a binding signal of 0.159 E-score.
CAAGACGC gave a binding signal of -0.161 E-score.
AATGGCGG gave a binding signal of -0.271 E-score.
For AGTGATAA, the binding signal was 0.145 E-score.
Work on AAACGGGT yielded a binding signal of -0.091 E-score.
In the case of CAAACGCA, the binding signal was -0.236 E-score.
GGTGGCAA gave a binding signal of -0.079 E-score.
GGATATGA was tested, and the binding signal was 0.212 E-score.
AGTCCGCG was tested, and the binding signal was -0.243 E-score.
Work on AGAATGTA yielded a binding signal of 0.201 E-score.
For CTCCTCAG, the binding signal was -0.391 E-score.
ACCTTTGC showed a binding signal of -0.0699 E-score.
CCGCACTA showed a binding signal of 0.123 E-score.
TAAGAGCA gave a binding signal of -0.127 E-score.
For ACGCTCCA, the binding signal was -0.214 E-score.
CGTCGACG was tested, and the binding signal was -0.281 E-score.
With ACGTTGGA the binding signal was -0.0982 E-score.
AAATGAGG showed a binding signal of -0.0365 E-score.
Sequence ACGTGGAA has a binding signal of -0.14 E-score.
For CTACGTAG, the binding signal was 0.282 E-score.
In the case of AGGGTGAC, the binding signal was -0.316 E-score.
TCACCGAA showed a binding signal of -0.176 E-score.
Work on CGTCAAAC yielded a binding signal of -0.108 E-score.
For GCTGCTTA, the binding signal was 0.123 E-score.
CAGCTTGA showed a binding signal of -0.172 E-score.
For GATGAGAA, the binding signal was -0.0179 E-score.
CCAACCTC was tested, and the binding signal was -0.111 E-score.
Work on ATGGCGGG yielded a binding signal of -0.261 E-score.
Work on AGATGTAA yielded a binding signal of 0.17 E-score.
With CTCATTCA the binding signal was -0.172 E-score.
ACACGTCG was tested, and the binding signal was -0.0892 E-score.
Sequence ATATCTCC has a binding signal of 0.174 E-score.
ATAAACTA gave a binding signal of 0.361 E-score.
Sequence ATCCGCTA has a binding signal of 0.15 E-score.
In the case of GTGATCTA, the binding signal was 0.0742 E-score.
For GGTGTCAA, the binding signal was 0.0133 E-score.
ACAAGGAT showed a binding signal of 0.0779 E-score.
In the case of TGAACTCA, the binding signal was -0.00906 E-score.
Sequence GTACTCAA has a binding signal of -0.0225 E-score.
Sequence CGGTCTTC has a binding signal of -0.286 E-score.
GAGAAGGA was tested, and the binding signal was -0.377 E-score.
For AGGGTTTC, the binding signal was -0.197 E-score.
CACGTCAC showed a binding signal of -0.0514 E-score.
GCAGGCGA was tested, and the binding signal was -0.152 E-score.
AAACCATT was tested, and the binding signal was 0.196 E-score.
ATGGTCTG was tested, and the binding signal was -0.171 E-score.
TAGCCGAA showed a binding signal of 0.0718 E-score.
Work on AGCTGGGG yielded a binding signal of -0.188 E-score.
In the case of GCCCCGGA, the binding signal was -0.471 E-score.
Work on GTAGAGCA yielded a binding signal of -0.132 E-score.
For ATAGGCAA, the binding signal was 0.0174 E-score.
GCAGGACA was tested, and the binding signal was -0.094 E-score.
ATACACGA showed a binding signal of 0.135 E-score.
Sequence CTGGGTAA has a binding signal of 0.0274 E-score.
CCACCAGG was tested, and the binding signal was -0.294 E-score.
Work on AAGAGTCA yielded a binding signal of 0.0182 E-score.
ATGGACCC showed a binding signal of -0.163 E-score.
Sequence AGTTGGAA has a binding signal of 0.0449 E-score.
In the case of ATAGTTGA, the binding signal was 0.228 E-score.
For CACTTTAA, the binding signal was 0.034 E-score.
Work on AGGCGTTA yielded a binding signal of -0.053 E-score.
CACTCTGG was tested, and the binding signal was 0.0912 E-score.
In the case of GCATGACA, the binding signal was -0.0957 E-score.
For CTCGTGGC, the binding signal was -0.35 E-score.
In the case of ACATGCGT, the binding signal was -0.0467 E-score.
In the case of TCGTGAGA, the binding signal was 0.0707 E-score.
In the case of GACTCCCA, the binding signal was -0.295 E-score.
For ATACGCGA, the binding signal was 0.227 E-score.
For TCAATTAA, the binding signal was 0.0259 E-score.
Sequence GCAAGTAA has a binding signal of -0.0735 E-score.
CGCGACCC gave a binding signal of -0.182 E-score.
For ACATCTAG, the binding signal was 0.325 E-score.
Work on CATATAAG yielded a binding signal of 0.119 E-score.
AGCGGTAG was tested, and the binding signal was 0.34 E-score.
With AGGCGTAC the binding signal was -0.03 E-score.
Work on GCATAACA yielded a binding signal of 0.0745 E-score.
In the case of GTAATTGA, the binding signal was 0.246 E-score.
Sequence AAAGCATT has a binding signal of -0.0355 E-score.
For GCAATAGC, the binding signal was 0.0689 E-score.
With AATTCTGG the binding signal was 0.0055 E-score.
CGTTAGAC gave a binding signal of -0.16 E-score.
ACCAGGGC showed a binding signal of -0.375 E-score.
Work on CAGCCTGA yielded a binding signal of -0.0561 E-score.
ACCGCAAC showed a binding signal of 0.157 E-score.
Work on ACCTTATG yielded a binding signal of -0.0134 E-score.
Sequence ATAGTAAG has a binding signal of 0.282 E-score.
CTCTGATA gave a binding signal of 0.0316 E-score.
CGCTTGTA showed a binding signal of 0.0549 E-score.
GGCAAGAC showed a binding signal of -0.137 E-score.
GCGCGAGA was tested, and the binding signal was 0.0171 E-score.
Work on CGAGAACA yielded a binding signal of 0.102 E-score.
Work on AACGTTGC yielded a binding signal of 0.0348 E-score.
ATTTCTAC gave a binding signal of 0.408 E-score.
CGTAGTAG gave a binding signal of 0.204 E-score.
GATCACCA showed a binding signal of 0.00574 E-score.
AGGAACAA showed a binding signal of -0.0452 E-score.
For ATACTATC, the binding signal was 0.378 E-score.
GTTCACTA showed a binding signal of 0.0803 E-score.
For AGGCTAAT, the binding signal was -0.155 E-score.
For AGTGCAGC, the binding signal was -0.0662 E-score.
AAAAACCT was tested, and the binding signal was 0.138 E-score.
GGCGCAAC showed a binding signal of -0.209 E-score.
For GCCAAATA, the binding signal was 0.101 E-score.
In the case of CATATTAG, the binding signal was 0.236 E-score.
For ACACTGGG, the binding signal was -0.228 E-score.
For CAGAACTC, the binding signal was 0.0708 E-score.
In the case of AGTTAGTC, the binding signal was 0.194 E-score.
In the case of GTGATAGA, the binding signal was 0.265 E-score.
AGGGTCGC gave a binding signal of -0.258 E-score.
ACCAGGTA gave a binding signal of -0.0276 E-score.
ATTGCAAA showed a binding signal of -0.0471 E-score.
With AGGTCTCC the binding signal was -0.288 E-score.
AATGGCGT showed a binding signal of -0.0647 E-score.
For GAGCTGAC, the binding signal was -0.206 E-score.
GGCCGCGA gave a binding signal of -0.245 E-score.
AGGAGCCG was tested, and the binding signal was -0.288 E-score.
Sequence CGGTCTGA has a binding signal of -0.189 E-score.
Work on CTGAAGCA yielded a binding signal of -0.0371 E-score.
Work on CATCAACC yielded a binding signal of -0.0593 E-score.
ATAAAGCG was tested, and the binding signal was -0.0211 E-score.
For GAAGATAC, the binding signal was 0.269 E-score.
CTGAACAA gave a binding signal of -0.00856 E-score.
With AATAGGCC the binding signal was -0.158 E-score.
ATTGTGGC gave a binding signal of 0.00688 E-score.
AGATCTGA showed a binding signal of 0.018 E-score.
CTGGGACA gave a binding signal of -0.244 E-score.
With GTTGTGTA the binding signal was 0.169 E-score.
With AAATTCCA the binding signal was 0.114 E-score.
GCTACAGC was tested, and the binding signal was 0.0848 E-score.
GAGTCAGA was tested, and the binding signal was -0.186 E-score.
In the case of CAAAGACA, the binding signal was -0.0086 E-score.
For CACTTGTA, the binding signal was 0.25 E-score.
Work on CCCAGCAC yielded a binding signal of -0.363 E-score.
AGGTATCC was tested, and the binding signal was 0.0603 E-score.
Sequence CCAGCACC has a binding signal of -0.323 E-score.
ACGTGCAC was tested, and the binding signal was 0.0174 E-score.
AATCGGGT showed a binding signal of 0.0327 E-score.
Sequence AACCACAA has a binding signal of 0.00862 E-score.
With CATCCCCA the binding signal was -0.187 E-score.
GGCCCGCA was tested, and the binding signal was -0.327 E-score.
In the case of CAGGAAAC, the binding signal was -0.00112 E-score.
GGGGTAGA gave a binding signal of 0.011 E-score.
CCGTATTA showed a binding signal of 0.149 E-score.
For AAAATCCC, the binding signal was 0.0234 E-score.
For CTCACGAA, the binding signal was -0.0439 E-score.
With AGTGAGTG the binding signal was 0.024 E-score.
Sequence GCTGGAAC has a binding signal of -0.0525 E-score.
GTGACGTA was tested, and the binding signal was 0.0931 E-score.
With CCAGTCTA the binding signal was -0.0147 E-score.
Sequence AACCCCTG has a binding signal of -0.182 E-score.
CATCGAAC gave a binding signal of -0.0803 E-score.
Sequence GGCCCTTA has a binding signal of -0.342 E-score.
Sequence CCGTCGGA has a binding signal of -0.215 E-score.
ACATACCT gave a binding signal of 0.264 E-score.
For AACTAGTC, the binding signal was 0.206 E-score.
With CAGGCGCA the binding signal was -0.188 E-score.
In the case of GGTCGTTA, the binding signal was -0.0111 E-score.
Sequence ATACGTGG has a binding signal of 0.0378 E-score.
With CAAAACAC the binding signal was -0.0304 E-score.
Sequence CTGCAAGC has a binding signal of -0.184 E-score.
In the case of GAAGCCGC, the binding signal was -0.372 E-score.
GTCCGGAA gave a binding signal of -0.166 E-score.
